± gives the standard deviation. The entries are a selection whose mix differs from that of the whole data set.
Test system: MIWI (PIWIL1) piRISC loaded with L1MC piRNA (30 nt)
Assay: pre-steady-state target cleavage rate (min^-1); MIWI and MILI are mouse PIWI proteins and EfPiwi is from a freshwater sponge; tags in brackets are library labels; higher = faster piRNA-guided slicing of the target
Conditions: guide: L1MC piRNA 5'p-UAACUAAAUACUAUGCAAGCUGUAGGUCCU; auxiliary factor: 500 nM mouse GTSF1
Procedure: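 Cleave-'n-Seq: a library of target RNAs (target site embedded in constant flanks, ACAGCATTCCGCGTTAGTGATATCCG... 5' flank; DNA-blocked outside the site) at 0.1 nM was incubated with 1 nM active mouse MILI or MIWI piRISC (synthetic 5'-monophosphorylated piRNA guide) with or without 500 nM mouse GTSF1 at 33 °C for 1 min to 16 h. Uncleaved targets were sequenced and normalised to non-target controls, and the pooled three trials were fitted to a burst-and-steady-state model to give the pre-steady-state cleavage rate (min^-1; k3 is constrained to at most 1e-4). Sequence is the target site only; target names encode pairing extent (gX:gY) and contiguous / 1-mismatch / 2-mismatch / bulge geometry. Fits with R² ≤ 0 are excluded.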

| Sequence | pre-steady-state target cleavage rate |
| --- | --- |
| AGGACCUACAGCUUGCAUAGUUUUUAGUAA | 0.292 ± 0.028 |
| UCCACCUAGAGCUUGCAUAGUAAUUAGUUA | 0.907 ± 0.1 |
| UCCUGCUACUGCUUGCAUUGUAUUUAGUUA | 0.68 ± 0.048 |
| AGGACCUACUGCUUGCAUAGUAUUUUCAAA | 0.198 ± 0.031 |
| UGCACCUACAGCUUGCAAAGUAUUUAGUUA | 1.23 ± 0.08 |
| UCCUGGUACAGGUUGCAUAGUAUAUAGUUA | 0.853 ± 0.2 |
| UCCUGGAACAGCUUGCAUAGUAUAUAGAUA | 0.169 ± 0.024 |
| UCCUGGAUGUGCUAGCAUAGUAUUUACUUA | 0.0937 ± 0.016 |
| UCCUGGAUCUCCUUGCAUAGUAUUUAGUAA | 0.284 ± 0.041 |
| UGGACCUACAGCUUCGUUAGUAUUUAGUUA | 0.0729 ± 0.011 |
| AGGACGUACAGCUUGCAUAGUAUUUACAAA | 0.214 ± 0.049 |
| UCCUGGUACUGCUUGCAUAGUAUUUAGAUA | 0.0569 ± 0.022 |
| AGGACCUACAGCUUGCAUAGUAAAAAGUUA | 0.489 ± 0.058 |
| UCCUGGAACAGCUUGCAUUGUAUUUUCAAA | 0.155 ± 0.03 |
| UCCUGGUACAGCGUGCAUAGUAUUUAGUUA | 0.515 ± 0.064 |
| AGGACCUACAGCUUGCUUAGUAUUAAGUUA | 0.559 ± 0.053 |
| UCGACCUACAGCUUGCAUACUAUAUAGUUA | 0.194 ± 0.017 |
| UCCUGGUACAGGUUGCAUAGUAUUUAGUUA | 0.688 ± 0.077 |
| UCCUGGUACAGCUUGCAUAGUAAAUAGUAA | 0.275 ± 0.056 |
| UGGACCUACAGCUUGCAUAGUAUUUUGAAA | 0.307 ± 0.034 |
| UCCUGGAAGAGCUAGCAUAGUAUUUAGUUA | 0.586 ± 0.035 |
| UGGACCUACAGCUUGCAAAGUAUUUAGUAA | 1.13 ± 0.074 |

Same assay, conditions: guide: L1MC piRNA 5'p-UAACUAAAUACUAUGCAAGCUGUAGGUCCU; auxiliary factor: none (no GTSF1)

| Sequence | pre-steady-state target cleavage rate |
| --- | --- |
| AGGACCUACAGCUUGCAUAGUUUUUAGUAA | 0.0226 ± 0.0061 |
| UCCACCUAGAGCUUGCAUAGUAAUUAGUUA | 0.0206 ± 0.0041 |
| UCCUGCUACUGCUUGCAUUGUAUUUAGUUA | 0.0235 ± 0.0049 |
| AGGACCUACUGCUUGCAUAGUAUUUUCAAA | 0.00608 ± 0.0028 |
| UGCACCUACAGCUUGCAAAGUAUUUAGUUA | 0.0409 ± 0.0074 |
| UCCUGGUACAGGUUGCAUAGUAUAUAGUUA | 0.0121 ± 0.0037 |
| UCCUGGAACAGCUUGCAUAGUAUAUAGAUA | 0.00459 ± 0.0033 |
| UCCUGGAUGUGCUAGCAUAGUAUUUACUUA | 0.00578 ± 0.0022 |
| UCCUGGAUCUCCUUGCAUAGUAUUUAGUAA | 0.00848 ± 0.0024 |
| AGGACGUACAGCUUGCAUAGUAUUUACAAA | 0.00641 ± 0.0022 |
| UCCUGGUACUGCUUGCAUAGUAUUUAGAUA | 0.0123 ± 0.0034 |
| AGGACCUACAGCUUGCAUAGUAAAAAGUUA | 0.00574 ± 0.0034 |
| UCCUGGUACAGCGUGCAUAGUAUUUAGUUA | 0.0243 ± 0.0045 |
| AGGACCUACAGCUUGCUUAGUAUUAAGUUA | 0.0143 ± 0.0034 |
| UCGACCUACAGCUUGCAUACUAUAUAGUUA | 0.0131 ± 0.003 |
| UCCUGGUACAGGUUGCAUAGUAUUUAGUUA | 0.02 ± 0.0044 |
| UGGACCUACAGCUUGCAUAGUAUUUUGAAA | 0.0092 ± 0.0036 |
| UCCUGGAAGAGCUAGCAUAGUAUUUAGUUA | 0.00934 ± 0.0044 |
| UGGACCUACAGCUUGCAAAGUAUUUAGUAA | 0.0219 ± 0.006 |
